# Results as given in the supplement of paper PMC3334620.
# Over roughly 33,000 sequences, “E-score (-0.5 to 0.5)” has its median near -0.054; the highest 2% begin near 0.35. The list shows a part of the results.
# Target: T1, Stb5 (UniProt P38699)
# T1 sequence: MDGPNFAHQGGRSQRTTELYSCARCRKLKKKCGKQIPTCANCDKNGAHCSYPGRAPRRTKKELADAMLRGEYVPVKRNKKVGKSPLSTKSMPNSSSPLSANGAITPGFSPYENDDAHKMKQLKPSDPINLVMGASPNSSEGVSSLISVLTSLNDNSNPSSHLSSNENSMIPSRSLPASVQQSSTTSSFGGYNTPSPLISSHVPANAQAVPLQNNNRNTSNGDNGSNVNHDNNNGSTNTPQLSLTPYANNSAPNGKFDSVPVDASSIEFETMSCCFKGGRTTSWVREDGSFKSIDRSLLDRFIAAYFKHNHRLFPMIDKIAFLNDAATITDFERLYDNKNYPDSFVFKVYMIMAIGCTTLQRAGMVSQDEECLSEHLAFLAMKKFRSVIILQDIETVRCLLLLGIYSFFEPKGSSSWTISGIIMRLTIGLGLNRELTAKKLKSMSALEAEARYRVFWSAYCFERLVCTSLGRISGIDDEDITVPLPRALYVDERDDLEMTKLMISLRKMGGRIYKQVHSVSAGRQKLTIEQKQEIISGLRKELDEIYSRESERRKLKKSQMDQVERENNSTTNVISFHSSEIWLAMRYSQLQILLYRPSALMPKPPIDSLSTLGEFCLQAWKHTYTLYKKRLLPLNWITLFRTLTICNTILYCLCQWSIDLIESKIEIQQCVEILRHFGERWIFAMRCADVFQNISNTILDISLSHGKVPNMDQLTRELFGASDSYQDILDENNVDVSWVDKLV
# Test: PBM E-score (8-mer binding enrichment) (E-score (-0.5 to 0.5)); higher = stronger / more preferred TF binding; most listed sequences are background and not binding sites
# Conditions: protein concentration: 200 nM; construct: GST-full length
# Procedure, shortened: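 Full-length yeast transcription factors or their DNA-binding domains, GST-tagged and expressed with PURExpress, were applied at about 100-200 nM to universal all-10-mer Agilent arrays. These arrays had been made double-stranded by primer extension on fresh or once-stripped slides. Detection used fluorescent anti-GST, normalisation used masliner, and E-scores for ungapped eight-base words pooled with reverse complements came from the Universal PBM Analysis Suite.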
row,Sequence,PBM E-score
1,ACAACGGC,0.141
2,ATGATGAG,-0.202
3,CAGCACGC,-0.192
4,CGCACCCA,-0.00867
5,ACGGGGTC,0.362
6,ATTCAGCC,-0.129
7,ATCCCACA,-0.215
8,ACGGCGCA,0.177
9,GGTGTAAC,0.381
10,CGAAAGAC,-0.00706
11,ACATGAGG,-0.0362
12,CATTAGTC,0.0928
13,ACCGTTGG,0.179
14,CTTTTACA,0.103
15,GCAGGCCA,-0.0621
16,AGGGTCTA,-0.0622
17,GAATATGA,-0.0764
18,CCCAAACG,-0.0918
19,GAAAGAGC,-0.135
20,CCCACGGC,0.176
21,ATGCACGG,0.178
22,AAGGTAGG,-0.0169
23,AAACACTG,-0.241
24,AACGGTCT,0.213
25,TGGTGAAA,0.0708

row,Sequence,PBM E-score
1,GGACGCCC,0.0973
2,CAGGTCAA,-0.121
3,CGATCATA,-0.052
4,GAGGAAAA,-0.0362
5,CCAGGTCG,-0.238
6,TAAAACCA,-0.106
7,ACGCGCTA,-0.08
8,ATCTGCGC,0.0281
9,GCATGCAA,0.0662
10,CAGGCAAG,-0.156
11,CTTCAGTA,-0.125
12,CTGCAGCA,-0.157
13,CGCCGCCC,0.352
14,ACGACACT,-0.0454
15,AGCCCATC,-0.171
16,ACAGTCGC,-0.126
17,GGGCAGCA,-0.192
18,CCGACCAA,0.228
19,AGGCTCGA,-0.165
20,CCACTCTC,-0.0624
21,CTGTCGAC,-0.0459
22,GTTAATAA,0.138
23,GCAAGACA,0.0211
24,TGGCCCAA,-0.151
25,CCACGGCG,0.304

row,Sequence,PBM E-score
1,CCGGTGGA,0.21
2,AGTGATTG,-0.118
3,ACGAGTGG,-0.163
4,ATTCTAGA,-0.117
5,ACGTCGTA,-0.102
6,ATCGCAGA,-0.152
7,ACTAAGCG,0.0755
8,ACCCTAAC,0.101
9,GTGAGTGA,-0.2
10,GACTACAC,-0.0555
11,AATGATAG,-0.00794
12,ATCGTTTG,-0.205
13,GCCAAAGC,-0.0229
14,TACCGACA,0.356
15,AAATGGTC,-0.019
16,AAAGCCAT,-0.188
17,CGCATTCC,0.00521
18,ATCTCAGC,-0.0916
19,AACATCAG,-0.13
20,CACGGCAA,0.174
21,CACAGGGC,-0.0583
22,CGTGCCCA,-0.111
23,TACGGAAA,0.0885
24,GGGTCTAC,0.178
25,GGTCAGGA,-0.102

row,Sequence,PBM E-score
1,CTGTTAGA,-0.105
2,CTTCCTAC,-0.111
3,GGATAGCA,-0.0723
4,CTAACTTA,0.00936
5,GCACCTGC,-0.0186
6,ATAGTGTG,-0.0725
7,GAACCAGC,-0.231
8,CACGGATC,0.256
9,ACCTAAAT,0.0871
10,TGTCAGAA,-0.188
11,ACGTTGAA,-0.0556
12,ATGCAACC,-0.0387
13,GCTACAAA,-0.152
14,CACTATTC,-0.0554
15,AAGGATGA,-0.167
16,CATGCACG,-0.0439
17,AAGTTCGG,0.251
18,AAGAGATG,-0.239
19,CTGGACCA,-0.0639
20,ACACTTGG,-0.0843
21,GGTGCCAA,0.163
22,ACTTCGAG,-0.00931
23,ATCGGCTC,0.104
24,AGAATTCC,0.00074
25,GACCTTGA,-0.18

row,Sequence,PBM E-score
1,AGACGTTA,-0.158
2,AAACATCA,-0.192
3,AGGTAGGG,-0.218
4,TGATTGCA,-0.101
5,ACCCGCAC,0.216
6,CAGGGATC,-0.12
7,AGGACTCG,-0.251
8,GACAAATA,0.237
9,CAGACGGG,0.179
10,AAATCCCG,0.411
11,AGGATTGC,-0.344
12,CGCCGCTC,0.349
13,ATGATATC,-0.122
14,CCCCACGC,-0.13
15,ATGAGCCA,-0.237
16,CCCGCCTA,0.302
17,GGATTAAC,0.175
18,AAGCCCGA,0.43
19,CGTCTAGC,0.0675
20,AATAAGAC,-0.00827
21,ATCGACCA,-0.242
22,CGAGAATC,-0.0495
23,ACACAATC,0.0152
24,CGTAGTAA,-0.0735
25,ACAGACGA,-0.146

row,Sequence,PBM E-score
1,AATGCGAT,-0.0612
2,AATCCAGG,-0.254
3,TCCGAGCA,0.197
4,GAAGGCAA,-0.234
5,AAGATATG,-0.0526
6,CCAAAGGC,-0.0282
7,ACCTAGCA,-0.211
8,ACGTCAGC,-0.167
9,GCTATGAC,0.129
10,AGCCAATC,0.0243
11,CCGTCACG,0.211
12,GAGTGGAA,-0.103
13,AGGGCCAA,-0.14
14,AGTATGCC,0.0352
15,CATGGATC,0.0909
16,CTAGCTCA,-0.237
17,AGGAGCAA,-0.169
18,CTGGTCGA,-0.024
19,GATAGTTA,0.0184
20,AATTCGAA,-0.0427
21,ACGGTTTC,-0.0169
22,GCACATAC,0.101
23,ACGTCTCA,-0.324
24,CACGTGAG,-0.189
25,CCGCAAAG,0.185

row,Sequence,PBM E-score
1,GCCCGATA,0.221
2,AAACCCGT,0.318
3,CCGGCTTA,0.239
4,GATTCAGA,-0.0219
5,CCCTACAG,-0.239
6,ACGCTTCA,-0.319
7,ATCTTCAC,0.0523
8,AGCTCCCC,-0.226
9,ACATATGT,-0.093
10,ACAGCGGC,0.274
11,CGATCTGA,-0.112
12,ACGGTGTC,0.408
13,CTCTCCAG,-0.243
14,GACCGCTC,0.267
15,AAATTGCA,-0.117
16,AGTTGTCC,-0.0384
17,GTCTACGA,-0.188
18,ATTGAGTC,0.0139
19,CGGAACGA,0.107
20,GTCTAACA,0.0742
21,GCGCGATA,-0.048
22,AGGACAAA,-0.167
23,TGCAGAAA,-0.0798
24,CATCTATC,-0.00316
25,AGTAGGTG,0.103

row,Sequence,PBM E-score
1,TCGGGACA,0.113
2,GACCCTGA,-0.0347
3,AAACCGCA,0.0164
4,CCCGGTTC,0.185
5,CACGTTCA,-0.137
6,GTCTCAGA,-0.0138
7,CGATAAAC,-0.0105
8,GTACCGTA,0.212
9,CAAACGTA,-0.103
10,ACTGACCT,-0.172
11,CTCTATCA,-0.0979
12,GGAAAACA,-0.00754
13,GATTGGGC,0.033
14,CAGTACGG,0.0749
15,ATGTTTTG,-0.0741
16,AGGCTACC,-0.128
17,CGCTATAC,0.18
18,GCGTCAGC,0.124
19,GCTTGCCC,-0.245
20,GAGAATTA,-0.0905
21,AGAATCCA,-0.146
22,ACCTCCGG,0.372
23,CGACTCGC,-0.0333
24,GATTAGTA,0.0787
25,GTATGTTA,0.131

row,Sequence,PBM E-score
1,AAGATATT,-0.143
2,GATTAATA,0.159
3,GGGGAATA,0.174
4,TAAAACAA,-0.0975
5,ATAACGAC,0.124
6,CCAACGAC,-0.118
7,ACCAGACC,-0.111
8,CCCACGAC,-0.00847
9,TCGGGGAA,0.302
10,CCAACTCC,0.116
11,AATTGAGC,-0.186
12,CGGGTTAG,0.0695
13,AAGGTCAG,-0.206
14,AGTCCGCG,0.339
15,GAGTGAGC,-0.108
16,CTATTGGC,-0.0713
17,CGAGGGAA,-0.0535
18,GGGAACAA,0.205
19,ACATCTTA,-0.269
